Measurements as given in PubChem BioAssay AID1030 (National Center for Advancing Translational Sciences (NCATS), 2008).
Screen size: about 220,000 compounds; about 16,000 (7.3%) were called active. Inconclusive means that the source gave no clear call. Such entries were picked first, then a sample of the others. Calls follow the shape of the dose curve; as a rule, active = well fitted inhibition curve with a large enough effect (not every such curve was filed as active); inconclusive = small, poorly fitted or top-dose-only effect, or another doubt; inactive = no such curve, though single readings can be large or run the other way. No potency is given beside an inconclusive call; the fits are too rough.

Target: Aldehyde dehydrogenase 1A1 (Homo sapiens) (UniProt P00352)
Assay: qHTS Assay for Inhibitors of Aldehyde Dehydrogenase 1 (ALDH1A1);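 as to activity, negative = inhibition: plate controls were no enzyme wells and a reference inhibitor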
Settings: Purified ALDH1A1, NADH fluorescence, propionaldehyde substrate; series mostly up to 75.3 µM; activity, negative = inhibition: at the top concentration
Potency is read from the fitted curve at half-maximal effect; tags tell the direction and shape of the fitted curve.

Chain of UniProt P00352 (P00352 whole entry, looked up): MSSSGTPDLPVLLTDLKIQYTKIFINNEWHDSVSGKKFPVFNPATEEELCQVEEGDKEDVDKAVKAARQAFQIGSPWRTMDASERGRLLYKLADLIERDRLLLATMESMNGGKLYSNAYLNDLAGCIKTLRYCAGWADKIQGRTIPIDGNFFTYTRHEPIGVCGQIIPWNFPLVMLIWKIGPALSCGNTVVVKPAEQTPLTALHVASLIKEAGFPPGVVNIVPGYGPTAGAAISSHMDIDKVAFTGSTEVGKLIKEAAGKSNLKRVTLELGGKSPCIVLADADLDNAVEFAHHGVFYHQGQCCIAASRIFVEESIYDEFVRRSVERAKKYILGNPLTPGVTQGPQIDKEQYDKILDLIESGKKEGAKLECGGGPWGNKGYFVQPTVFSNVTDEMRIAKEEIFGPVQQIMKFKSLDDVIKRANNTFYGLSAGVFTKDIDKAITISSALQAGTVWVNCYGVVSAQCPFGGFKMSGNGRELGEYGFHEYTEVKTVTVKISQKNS

SMILES | Potency | activity, negative = inhibition
Cc1ccccc1Nc1scc(-c2ccc(Cl)cc2)[n+]1-c1ccccc1C | inconclusive [inhibitor, single point] | 
COc1ccc(CCN2C(=S)N(C)C(=O)C2CC(=O)Nc2ccc(F)cc2)cc1 (stereo not drawn) | active: 1.26 µM | 
Cc1cccc(C(=O)NCCNc2nc3cc(C)c(C)cc3cc2C)c1 | inconclusive [inhibitor, single point] | 
CCOc1cc(C#N)c(NC(=O)c2ccco2)cc1OCC | inconclusive [inhibitor, single point] | 
CCCCN(C)C(=O)C1CCC(=O)N(c2cc(OC)c(OC)c(OC)c2)C1c1ccc(OC)cc1 (stereo not drawn) |  | inactive: -0.32%
COC(=O)C1=C(C)NC2=C(C(=O)CCC2)C1c1ccc(-c2ccsc2C(=O)OC)o1 (stereo not drawn) | inconclusive [inhibitor, single point] | 
CC(C)CNC(=S)N1CCN(Cc2ccc3c(c2)OCO3)CC1 | inconclusive [inhibitor, single point] | 
COc1cccc(C2=NN(C(=O)c3cccs3)C(O)(C(F)(F)F)C2)c1 (stereo not drawn) | inconclusive [inhibitor, single point] | 
CCC(C)(C(=O)NC1CCCC1)N(C(=O)CC1NC(=O)NC1=O)c1c(C)n(C)n(-c2ccccc2)c1=O (stereo not drawn) |  | inactive: 10%
O=C(NC(=S)NCc1nc2ccccc2[nH]1)c1ccc(F)cc1 | inconclusive [inhibitor, single point] | 
CCN1C(=O)[C@H]2[C@H]3[C@H](O)[C@H](O)C/C(=N/OCC(C)C)[C@H]3CC[C@@H]2C1=O |  | inactive: 0.268% [at 13.5 µM]
CN1CCN(C(=S)c2ccc(Cl)cc2)CC1 |  | inactive: 8.3%
CC(=O)Nc1cccc(C(=O)N/N=C/c2ccccc2F)c1 |  | inactive: 4.43%
Cc1ccc(-n2cc(CNC(C)c3cnn(C)c3)c(-c3ccc(F)cc3)n2)cc1 (stereo not drawn) |  | inactive: 9.59%
COc1ccc(CC(=O)Nc2cc(S(=O)(=O)N3CCCCC3)ccc2N2CCN(C)CC2)cc1 | inconclusive [inhibitor, partial curve] | 
CCCc1cc(-n2ccnc2)n2c(nc3ccccc32)c1C#N | inconclusive [inhibitor, single point] | 
CCOC(=O)C1CCN(C(=O)C2CCCCC2)CC1 | inconclusive [inhibitor, single point] | 
Cc1ccc(NC(=O)c2cc(-c3ccc(F)cc3)on2)cc1C |  | inactive: -0.496%
Cc1ccc(S(=O)(=O)NCC(=O)N2CCN(c3ccccc3F)CC2)cc1 |  | inactive: -10.8%

SMILES | Potency | activity, negative = inhibition
O=C(N1CCOCC1)C(F)(F)C(=O)N1CCOCC1 |  | inactive: 5.51%
CC1(C)C(=O)Nc2ccccc2N1C(=O)COc1ncnc2c(Cl)cc(Cl)cc12 | active: 28.2 µM | 
Oc1ccc2ccccc2c1/C=N/Nc1ccccc1 | active: 17.8 µM | 
O=C(CSc1nnc(-c2ccncc2)o1)N1CCCCCC1 |  | inactive: -3.4%
O=C1OCCN1C(=O)[C@H]1[C@H](c2ccc(F)cc2)C(c2cccc(Cl)c2)=NN1c1ccc(Br)cc1 | inconclusive [inhibitor, partial curve] | 
O=C(Nc1ccc(Cl)cc1)OCCn1nnnc1C(c1ccccc1Cl)N1CCOCC1 (stereo not drawn) |  | inactive: -10.3%
O=C(c1ccc(-c2ccccc2)cc1)N1CCN(C(=O)c2ccco2)CC1 | inconclusive [inhibitor, partial curve] | 
COc1ccc(C(=O)C2CCN(C(=S)Nc3ccc(F)cc3)CC2)cc1 |  | inactive: -1.68%
CCOc1ccccc1N1CCN(c2nc3ccccc3nc2C(C#N)C(=O)OC)CC1 (stereo not drawn) |  | inactive: -1.64%
O=C(NCCc1ccccc1)C1CCN(C(=O)c2sccc2-n2cccc2)CC1 | active: 3.98 µM | 
Cc1cc(Br)ccc1SCC(=O)OCC(=O)NC1CC1 |  | inactive: 8.86%
CCCCCCCCC1CO1 (stereo not drawn) |  | inactive: -4.27%
COc1ccccc1-c1nccc(Nc2ccc(F)cc2)n1 |  | inactive: -7.49%
NC1=NS(=O)(=O)NC1c1ccc(F)cc1 (stereo not drawn) |  | inactive: -7.8%
N#CC1=C(S)N(c2ccc(F)cc2)C2(CCCCC2)NC1=O |  | inactive: -2.31%
O=C(/C=C/C=C/c1ccccc1)c1ccco1 | active: 28.2 µM | 
CC(C)Nc1nnc(SCC(=O)Nc2ccc3c(c2)C(=O)c2ccccc2C3=O)s1 | active: 7.94 µM | 
COc1cccc(C2CC(c3ccc(Br)cc3)=NN2C(=O)c2ccncc2)c1OC (stereo not drawn) | inconclusive [inhibitor, single point] | 
Cc1ccc(S(=O)(=O)NCCc2nnc3ccc(SCc4cccnc4)nn23)cc1 |  | inactive: -5.59%
